Results as given in PubChem BioAssay AID493208 (National Center for Advancing Translational Sciences (NCATS), 2011).
Screen size: about 44,000 compounds; about 340 (0.77%) were called active. About 5% were inconclusive and are not listed. Calls follow the shape of the dose curve; as a rule, active = well fitted inhibition curve with a large enough effect; inconclusive = small, poorly fitted or top-dose-only effect; inactive = flat fitted curve, though single readings scatter. The list shows a part of the results.

test: Acumen qHTS Assay for Inhibitors of the mTORC1 Signaling Pathway in MEF (Tsc2-/-, p53-/-) Cells: Sytravon; settings: phospho-rpS6 immunofluorescence/PI, 24 h; series mostly up to 38.3 µM; activity change, negative = inhibition: at the top concentration;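 also: plate controls were DMSO for no effect and rapamycin for full effect; nearly all actives have a fitted effect of over 50% in size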
Procedure, shortened: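 Immunofluorescence of rpS6 phosphorylation in Tsc2-/-, p53-/- MEFs after 24 h compound exposure, normalized to propidium iodide signal. Activity is expressed as % positive cells, thresholded with 7.5 nM rapamycin.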

Activity change, negative = inhibition, inactive:
Cc1ccc(NC(=O)Cn2cnc3sc(C(=O)O)c(C)c3c2=O)cc1Cl 1.83%
O=C(CSc1nnc(CNC(=O)c2cccc(F)c2)n1-c1ccccc1)Nc1ccccc1F 1.46%
Fc1ccc(-c2noc3ncnc(NCCc4ccccc4)c23)cc1 -4.44%
CCOc1ccc(-c2nonc2NC(=O)COc2c(C)cc(C)cc2C)cc1OCC -10.7%
COc1ccc(Nc2nc(-c3ccc(C)cc3)nc3ccccc23)c(OC)c1 7.27%
CCCCCn1c(C(C)NC(=O)c2ccccc2)nc2ccccc21 (configuration not stated) 4.07%
COc1ccc2c(c1)c1c(c(=O)n(Cc3ccccc3)c(=O)n1CC(=O)NCc1ccccc1Cl)n2C -14.6%
CCOc1cc(CNC(=O)C2COc3ccccc3C2)cc(OCC)c1OCC (configuration not stated) -0.892%
CCc1nn(CC(=O)NCCc2ccc(OC)cc2OC)c(=O)c2cc3c(OC)cccc3n12 1.02%
COc1ccc(CCn2cc3c(c2-c2ccc(Br)cc2)c(=O)n(C)c(=O)n3C)cc1OC 3.91%
Cc1ccc(C(C)C)c(OCC(=O)NCC2(N(C)C)CCCCC2)c1 -9.43%
Cc1ccccc1C(=O)n1nc(-c2ccco2)nc1NCc1ccc(Cl)cc1 -6.57%
Cc1ccccc1N1CC(c2nc3ccccc3n2CCC2CCCCC2)CC1=O (configuration not stated) 1.41%
COc1ccc(CNC(=O)CCn2cccn2)cc1 -16.8%
COc1ccc(-c2nc(C)c(CCNC(=O)C(=O)Nc3ccccc3OC)s2)cc1 0.618%
O=C(NCCc1ccccc1Cl)c1ccc(Cn2c(=O)c3cccn3c3cccnc32)cc1 4.53%
O=C(COc1ccc(Cl)cc1)Nc1ccc(-c2nc3ccccc3s2)c(O)c1 3.05%
Cc1ccc(-c2nnc(SCc3ccccc3C)o2)cc1 2.16%
CCc1ccccc1NC(=O)c1c(NC(=O)c2ccccc2)sc2c1CCCC2 -4.5%
CCOC(=O)C1CCC(CN(Cc2cccc(Br)c2)S(=O)(=O)c2ccc(C)cc2)CC1 (configuration not stated) 3.06%
COc1ccc(S(=O)(=O)Nc2ccc3c(c2)N(C(C)=O)CCC3)cc1F 21.8%
COc1cc(Cl)c(NC(=O)CCS(=O)(=O)c2cc3c(cc2Cl)NC(=O)CO3)c(OC)c1 -0.0611%
COc1cc(-c2cc(OC)c3c(C)oc(C)c3c(=O)c2)ccc1OC(=O)c1ccccc1Cl 2.38%
COc1ccc(OC)c2sc(N3CCN(C(=O)C(C)(C)C)CC3)nc12 0.191%
Cc1ccc(-c2cc3ncc4c(n3n2)-c2cc(C)ccc2OC4)cc1 -0.34%
Cc1cc(C)c2c(=O)cc(CSCC(=O)Nc3ccccc3Cl)[nH]c2c1 12.7%
CCOC(=O)C1=C(CN2CCC(C)CC2)NC(=O)NC1c1ccc(F)cc1 (configuration not stated) -7.9%
Cc1cccc(Oc2nc3c(C)cccn3c(=O)c2/C=C(\C#N)c2nc3ccccc3[nH]2)c1 -3.39%
Cc1ccc2nc(N3CCN(c4cccc(Cl)c4)CC3)c(-n3nc(C)cc3C)nc2c1 -1.23%
COc1ccccc1CNC(=O)C1CCC(CNS(=O)(=O)c2ccc3c(c2)CCCC(=O)N3)CC1 (configuration not stated) -5.76%
Cc1ccc(N2C(=O)CSC23C(=O)N(CC(=O)NCc2ccccc2)c2ccccc23)cc1C (configuration not stated) 1.14%
CNC(=O)c1c(NC(=O)c2ccc(S(=O)(=O)N3CCC(C)CC3)cc2)sc2c1CCC2 -4.15%
Cc1cccc(C)c1OCC(=O)NCC1(N(C)C)CCCCC1 -2.59%
COc1ccc(CNC(=O)c2ccc(N3CCCC3)c(NC(=O)NCc3ccc(F)cc3)c2)cc1 20%
COc1ccc(CNS(=O)(=O)c2cnc(N)nc2)c(OC)c1 -11.5%
CCN(CC)CCNC(=O)c1ccc(Cn2c(SCc3ccccc3)nc3cccnc32)cc1 -2.97%
Cc1ccc2c(Sc3ccc(Cl)cc3)c(C(=O)N3CCC(C)CC3)[nH]c2c1 1.83%
CS(=O)(=O)c1ccc(-c2nnc(NC(=O)c3ccc4c(c3)OCCO4)o2)cc1 5.16%
CCC1CN(C(=O)N2CCC(C(=O)NCCN(CC)CC)CC2)c2cc(C)ccc2O1 (configuration not stated) -1.02%
CCOc1cc(CNC(=O)c2sc3ncnc(N(C)C4CCCCC4)c3c2C)ccc1OC 0.181%
CC(C)Oc1ccc(CNC(=O)CCCN2C(=O)c3cccnc3Oc3ccc(Cl)cc32)cc1 -6.33%
CCC(=O)N1CCc2cc(Br)cc(S(=O)(=O)Nc3ccc(C)cc3C)c21 -5.58%
CCN(C(=O)c1cc2c(s1)-c1c(C)cccc1OC2)c1ccccc1F -0.186%
CCc1cc(=O)oc2c3c(c(Cl)cc12)OCN(Cc1cccc(OC)c1)C3 -9%
CCOC(=O)c1scc(-c2ccccc2)c1S(=O)(=O)Nc1cc(OC)cc(OC)c1 -10.7%
O=C(Cn1cc(SCc2c(F)cccc2Cl)c2ccccc21)N1CCCCCC1 -16.4%
COc1ccc(-n2nc(C(=O)N(C)c3cc(C)ccc3C)c3c4ccccc4n(C)c3c2=O)cc1Cl 0.716%
Cc1ccc(C)c(NC(=O)c2cnn(-c3cccc(F)c3)c2C2CCN(C(=O)OC(C)(C)C)CC2)c1 -10.3%
CCOc1ccc(NS(=O)(=O)c2ccc(-c3cc(C)no3)s2)cc1 1.3%
Cc1c(Cl)cccc1NC(=O)c1cnc2sc(N3CCOCC3)nn2c1=O 1.92%
CCN(c1ccccc1)S(=O)(=O)c1ccc(NC(=O)c2cc(=O)c3cc(C)cc(C)c3o2)cc1 3.88%
CCC(=O)N1c2ccccc2CC1C(=O)NCCc1ccccc1C (configuration not stated) 7.35%
Cc1ccc(S(=O)(=O)Nc2ccc3c(c2)CCCN3C(=O)c2cccs2)cc1 -0.458%
Cc1cc2ccccc2n1CCNC(=O)c1cccc(Br)c1 -13.7%
O=C(CSc1cn(CC(=O)N2CCOCC2)c2ccccc12)Nc1ccccc1F -1.07%
COc1ccc2oc(=O)cc(CN3CCN(Cc4ccccc4)CC3)c2c1 -6.13%
COc1ccc(OC)c(CCNC(=O)CCCn2c(=O)c3cccn3c3ccccc32)c1 3.41%
O=C(c1ccc2c(c1)N(Cc1ccc(Cl)cc1)C(=O)c1ccccc1S2=O)N1CCOCC1 (configuration not stated) 0.226%
Cc1cc(C)c2c(CC(=O)N3CCN(c4cccc(Cl)c4)CC3)coc2c1 5.52%
CCc1cccc(NC(=O)Cn2c(=O)ccc3cc(S(=O)(=O)N4CCC(C)CC4)ccc32)c1 -10.9%
CCOc1ccccc1N1CC(c2nc3ccccc3n2CCOc2ccccc2)CC1=O (configuration not stated) -0.484%
CCc1ccc(CNc2ncnc3c2nc2n3CCCC2)cc1 4.71%
COc1cccc(N2CCN(C(=O)c3ccc(Cn4c(=O)[nH]c5cc(OC)c(OC)cc5c4=O)cc3)CC2)c1 -1.74%
CC1CCc2nc3ncn(Cc4ccccc4C#N)c(=O)c3cc2C1 (configuration not stated) -0.874%
COc1ccc(C(CNC(=O)c2oc3ccc(Cl)cc3c2C)N2CCCCC2)cc1 (configuration not stated) -3.38%
CCCC(=O)N(c1ccc2oc3c(c2c1)CCCC3)S(=O)(=O)c1cc(C)ccc1C -28.7%
O=C1CC(c2nc3ccccc3[nH]2)CN1c1cccc(Cl)c1 (configuration not stated) 1.22%
COC(=O)c1ccc(CSc2nc3c([nH]c4ccccc43)c(=O)n2-c2ccc(Cl)cc2)o1 -4.71%
CCCCNc1nc2c(c(=O)n(Cc3ccc(Cl)cc3)c(=O)n2C)n1C 1.7%
Nc1nnc2c(n1)[nH]c1ccccc12 2.2%
COc1cccc(CSc2nc3cc(C(=O)NC4CCCC4)ccc3c(=O)n2Cc2ccccc2)c1 -7.85%
O=C(CSc1nc2ccccc2n1Cc1ccccc1)N1CCN(c2ccc(F)cc2)CC1 0.435%
COc1ccc(-n2cc(C(=O)NCc3ccccc3)c3ccccc3c2=O)cc1 5.45%
Cc1cc(Cl)ccc1NC(=O)c1cc(S(=O)(=O)N2CCOCC2)cn1C -0.0914%
COc1ccc(CNC(=O)c2ccc(CS(=O)(=O)c3ccccc3OC)o2)cc1 -2.71%
O=C(NCCc1nc2ccccc2n1Cc1ccc(F)cc1)c1ccco1 -2.81%
Cc1ccc(-c2nc(CCNC(=O)C(=O)Nc3ccc(C)cc3C)cs2)cc1 -7.12%
Cc1ccc(C)c(-c2[nH]c3c(c2-c2c(-n4cccc4)n(C)c(=O)[nH]c2=O)c(=O)[nH]c(=O)n3C)c1 2.63%
CCN(CC)S(=O)(=O)c1ccc2c(c1)N(CC(=O)N1CCN(c3ccc(F)cc3)CC1)C(=O)CO2 -8.79%
CCOc1ccc(CCNC(=O)Cn2nc(-c3ccc(C)cc3)ccc2=O)cc1OCC 9.71%
CCc1ccccc1NC(=O)C1=C(C)C(=O)OC12CCCCCC2 0.0094%
COc1cc(CN2CCN(S(=O)(=O)c3ccccc3)CC2)cc(OC)c1O -2.16%
O=C(CNS(=O)(=O)c1cccs1)N1CCN(c2cccc(C(F)(F)F)c2)CC1 -1.27%
Cc1cccc(NC(=O)C(=O)NCC(c2ccc3c(c2)OCO3)N2CCN(C)CC2)c1C (configuration not stated) 0.236%
COc1ccc(OC)c(NC(=O)c2cccn2-c2nnc(N3CCCCC3)s2)c1 -1.23%
COc1ccc(CNC(=O)c2cc3c(=O)oc4ccc(C)cc4c3s2)c(OC)c1 -0.748%
COc1cc(NC(=O)CSc2ncc(S(=O)(=O)c3ccc(Br)cc3)c(=O)[nH]2)cc(OC)c1 -10.3%
Cc1c2cnn(CC(=O)NCCc3ccccc3)c(=O)c2c(C)n1Cc1ccccc1 -1.07%
Fc1ccc(-c2noc3ncnc(NC4CCCCC4)c23)cc1 -1.79%
CCCCOc1cccc(C(=O)N(Cc2sccc2C)C2CCS(=O)(=O)C2)c1 (configuration not stated) -3.82%
CCN(CC)S(=O)(=O)c1ccc2oc(C(=O)N(C)Cc3ccccc3)c(C)c2c1 2.93%
COc1ccc(Cn2c(=O)c3oc4ccccc4c3n(Cc3ccc(F)cc3)c2=O)cc1 -0.781%
Cc1cccc(N2CCN(C(=O)CCCCn3c(=O)[nH]c4ccsc4c3=O)CC2)c1C 1.22%
Cc1cc(Nc2cccc(Cl)c2)nc2ccc(NC(=O)Cc3cccc(C(F)(F)F)c3)cc12 0.0791%
COc1ccc(CNC(=O)c2ccc(NC(=O)N3CCCCc4ccccc43)cc2)cc1 1.6%
O=C(NCCCc1ccccc1)C1CCN(C(=O)N2CCOc3ccc(Cl)cc32)CC1 -24.9%
Cn1ccc2c(OCC(=O)Nc3cc(C(F)(F)F)ccc3Cl)cccc2c1=O -4.91%
